Measured values as given in patent US20230125301A1 (published 2023).

Tests used:
human PD-L1 [1] = target: T1, human PD-L1 (human, UniProt Q9NZQ7); assay: FACS binding, CHO-K1 cells
human PD-L1 [2] = target: T1, human PD-L1; assay: FACS binding, CHO-K1 cells; remark: listed apart in the source
T1 sequence (Q9NZQ7 19-290): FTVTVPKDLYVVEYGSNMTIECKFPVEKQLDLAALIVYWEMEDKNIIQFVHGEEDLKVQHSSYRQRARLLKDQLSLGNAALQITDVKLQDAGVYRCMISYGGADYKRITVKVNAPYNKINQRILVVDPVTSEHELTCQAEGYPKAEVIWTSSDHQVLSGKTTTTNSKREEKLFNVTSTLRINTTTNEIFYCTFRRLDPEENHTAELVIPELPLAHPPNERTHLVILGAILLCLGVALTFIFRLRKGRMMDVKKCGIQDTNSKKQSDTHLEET

EC50 (human PD-L1 [1]): 0.0558 nM
B1: sdAb-PDL1b-IgG4PE (Fc fusion)
chain: EVQLVESGGGLVQPGGSLRLSCAASGRTFVTYGMGWFRQAPGKGREFVSAISWSGSSTSYGDSVKGRFTISRDNAKNTLYLQMNSLRPEDTAVYYCAAALGAVVYTTREPYTYWGQGTLVTVSS[letters of human IgG4 Fc with changes not shown]

EC50 (human PD-L1 [2]): 0.333 nM | EC50 (human PD-L1 [1]): 0.0712 nM
B2: sdAb-PDL1a-IgG4PE (Fc fusion)
chain: EVQLVESGGGLVQPGGSLRLSCAASGRTFVTYGMGWFRQAPGKGREFVSAISWSGSMTSYGDSVKGRFTISRDNAKNTLYLQMNSLRPEDTAVYYCAAALGAVVYTTREPYTYWGQGTLVTVSS[letters of human IgG4 Fc with changes not shown]

EC50 (human PD-L1 [1]): 0.0683 nM
B3: sdAb-PDL1c-IgG4PE (Fc fusion)
chain: EVQLVESGGGLVQPGGSLRLSCAASGRTFITYAIGWFRQAPGKGREFVSAISWSGSMTSYADSVKGRFTISRDNAKNTLYLQMNSLRPEDTAVYYCAAHRGAIAPIAQSVYTNWGQGTLVTVSS[letters of human IgG4 Fc with changes not shown]

Where two headings read alike, the source gives them in different places. Each block holds one binder with its values, some of them ahead of it.
